Results: the supplement of paper PMC4967469
Lines with a small IC50 respond at low doses; a limit (>, <) means that the fit lies beyond the doses tested. The AUC spans the tested range (256-fold, ending at the top dose) of the same fit; the more sensitive the line, the further below 1. For some assays here: Any top dose called inferred is not printed in the source and was worked back from the curve model. For some assays here: An entry number marks a drug with two screens in the source, which often give different values.

Tests used:
Experiment in all cases: Viability of human cancer cell lines after 72 h of drug (GDSC screen)
OSU-03012 = compound: NCC(=O)Nc1ccc(-n2nc(C(F)(F)F)cc2-c2ccc3c(ccc4ccccc43)c2)cc1 [OSU-03012]; details: top dose 16 µM; top dose inferred
Protocol: (§1)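 Human cancer cell lines in 384-well plates, medium with 10% serum, drug for 72 h over a 256-fold dose range (nine 2-fold or five 4-fold steps up to the top dose). Adherent lines were fixed and stained with the nucleic acid dye Syto60, suspension lines read with resazurin; signal relative to control wells, capped at 0 and 100%. One two-parameter sigmoid per drug and line, fitted in a mixed model over all curves with the slope shared within a line.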

QS11 = compound: OC[C@H](Cc1ccccc1)Nc1nc(Oc2ccc3c(c2)CCC3)nc2c1ncn2Cc1ccc(-c2ccccc2)cc1 [QS11]; details: top dose 10.24 µM
Protocol: as §1

RDEA119 = compound: COc1cc(F)c(F)c(Nc2ccc(I)cc2F)c1NS(=O)(=O)C1(C[C@H](O)CO)CC1 [RDEA119]; details: top dose 5 µM, top dose inferred
Protocol: as §1

5-Fluorouracil = compound: O=c1[nH]cc(F)c(=O)[nH]1 [5-Fluorouracil]; details: top dose 32 µM; top dose inferred
Protocol: as §1

JNK-9L = compound: Fc1cc(-c2ccnc(Nc3ccc(-n4cnc(N5CCOCC5)n4)cc3)n2)cc(N2CCOCC2)c1 [JNK-9L]; details: top dose 5.12 µM; top dose inferred
Protocol: as §1

CUDC-101 = compound: C#Cc1cccc(Nc2ncnc3cc(OC)c(OCCCCCCC(=O)NO)cc23)c1 [CUDC-101]; details: top dose 5.12 µM; top dose inferred
Protocol: as §1

AC220 = compound: CC(C)(C)c1cc(NC(=O)Nc2ccc(-c3cn4c(n3)sc3cc(OCCN5CCOCC5)ccc34)cc2)no1 [AC220]; details: top dose 1.024 µM; top dose inferred
Protocol: as §1

Cell Line	AUC (OSU-03012)	IC50 (OSU-03012) [nM]	AUC (QS11)	IC50 (QS11) [nM]	AUC (RDEA119; screen: GDSC drug entry 1014)	IC50 (RDEA119; screen: GDSC drug entry 1014) [nM]	AUC (RDEA119; screen: GDSC drug entry 1526)	IC50 (RDEA119; screen: GDSC drug entry 1526) [nM]	AUC (5-Fluorouracil)	IC50 (5-Fluorouracil) [nM]	AUC (JNK-9L)	IC50 (JNK-9L) [nM]	AUC (CUDC-101)	IC50 (CUDC-101) [nM]	AUC (AC220)	IC50 (AC220) [nM]
MC116 (B-cell lymphoma, suspension)	0.86	7480	0.984	> 10200	0.999	> 5000	0.999	> 5000	0.703	6160	0.571	475	0.225	69.7	0.999	> 1020
NCI-H838 (lung adenocarcinoma, adherent)	0.845	12300	0.969	> 10200	0.814	2860	0.905	> 5000	0.802	16500	0.551	444	0.745	1660	0.985	> 1020
D-502MG (glioma, adherent)	0.926	> 16000	0.976	> 10200	0.794	3950	0.76	2760	0.877	> 32000	0.735	2220	0.562	518	0.974	> 1020
RERF-LC-MS (lung adenocarcinoma, adherent)	0.854	13200	0.986	> 10200	0.701	1170	0.773	2010	0.974	> 32000	0.635	761	0.824	3160	0.987	> 1020
COLO-792 (melanoma, adherent)	0.984	> 16000	0.813	5440	–	–	0.537	394	0.975	> 32000	0.902	> 5120	0.818	2830	0.978	> 1020
L-363 (myeloma, suspension)	0.726	3950	0.844	5900	0.942	> 5000	0.953	> 5000	0.668	5450	0.513	345	0.47	268	0.976	> 1020
LS-1034 (large intestine, adherent)	0.578	1670	0.922	> 10200	0.724	1450	0.543	415	0.601	3890	0.705	1300	0.66	934	0.984	> 1020
AGS (stomach, adherent)	0.527	1170	0.82	5100	0.371	144	–	–	0.935	> 32000	0.495	311	0.507	333	0.99	> 1020
CP50-MEL-B (melanoma, adherent)	0.864	13700	0.986	> 10200	0.245	58.2	0.381	148	0.957	> 32000	0.623	696	0.552	444	0.987	> 1020
WSU-NHL (lymphoid neoplasm, suspension)	0.715	3710	0.966	> 10200	0.961	> 5000	–	–	0.896	30900	0.609	614	0.567	476	0.989	> 1020
CAL-78 (chondrosarcoma, adherent)	0.907	> 16000	0.986	> 10200	0.95	> 5000	0.94	> 5000	0.909	> 32000	0.841	4340	0.884	> 5120	0.985	> 1020
OVTOKO (ovary, adherent)	0.835	14800	0.977	> 10200	0.794	3040	0.775	2540	0.888	> 32000	0.446	219	0.712	1520	0.972	> 1020
FADU (head and neck, adherent)	0.828	9340	0.988	> 10200	0.594	562	–	–	0.96	> 32000	0.619	673	0.665	904	0.988	> 1020
LNZTA3WT4 (glioma, adherent)	0.897	> 16000	0.983	> 10200	0.865	4250	0.87	4510	0.893	> 32000	0.581	529	0.978	> 5120	0.987	> 1020
NCI-H345 (small cell lung carcinoma, suspension)	0.979	> 16000	0.972	> 10200	0.985	> 5000	0.989	> 5000	0.97	> 32000	0.852	4300	0.42	191	0.99	> 1020
AM-38 (glioma, semi-adherent)	0.726	4460	0.938	> 10200	0.926	> 5000	0.986	> 5000	0.624	4430	0.701	1190	0.618	679	0.974	> 1020
